Consider 32 sequences from publication PMC12820563, “FoxP3 forms a head-to-head dimer in vivo and stabilizes its multimerization on adjacent microsatellites”.

The list shows a part of the results.

The assay deals with T1, MBP-FoxP1dN (Mus musculus, UniProt P58462 326-579).
T1 sequence: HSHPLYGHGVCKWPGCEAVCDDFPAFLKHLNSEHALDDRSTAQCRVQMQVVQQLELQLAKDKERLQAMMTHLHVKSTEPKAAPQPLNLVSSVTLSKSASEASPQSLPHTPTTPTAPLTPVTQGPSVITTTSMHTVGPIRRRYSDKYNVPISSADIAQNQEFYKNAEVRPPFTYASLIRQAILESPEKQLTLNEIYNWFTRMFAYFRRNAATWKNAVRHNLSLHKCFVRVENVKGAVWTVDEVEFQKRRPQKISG
In words: PD-seq (MBP pull-down with sequencing); 20 mM Tris-HCl pH 7.5, 100 mM NaCl, 1.5 mM MgCl2, 0.4 uM protein, 0.1 uM dsDNA library, 30 min, room temperature, amylose pull-down; high values mean tight binding. The conditions noted are these: protein: recombinant; tags: His6-MBP; chain copies: 2; dsDNA, one strand shown. The procedure, abridged: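 Binding is the reads-per-million enrichment of pull-down relative to input, pooled across replicates. For this, 0.4 µM His6-MBP-tagged mouse FoxP3 or FoxP1 fragment lacking the N-terminus, made in E. coli, was incubated with 0.1 µM Klenow-filled double-stranded degenerate DNA library for 30 min at room temperature in Tris pH 7.5 buffer with NaCl and MgCl2. Complexes bound to amylose resin were washed three times before proteinase K released the DNA for PCR barcoding and Illumina sequencing.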
Turning to “GATGATTGTTCTCCCAGCTGATGAATTAACAATGTCGAGTAAACAAATTTTCCTAATCTTTCTGTTCAAGCGCCATCTAC”, the binding signal was 1.17 RPM ratio (pull-down/input).
In the case of “GATGATTGTTCTCCCAGCTGATGAATTCTTACCTTCGAGTAAACAAATTTTCCTAATCTTTCTGTTCAAGCGCCATCTAC” it was 0.928 RPM ratio (pull-down/input).
“GATGATTGTTCTCCCAGCTGATGAATTCGCATGTTCGAGTAAACAAATTTTCCTAATCTTTCTGTTCAAGCGCCATCTAC”: the binding signal is 0.913 RPM ratio (pull-down/input).
In the case of “GATGATTGTTCTCCCAGCTGATGAATTGCATACGTCGAGTAAACAAATTTTCCTAATCTTTCTGTTCAAGCGCCATCTAC” it was 1.34 RPM ratio (pull-down/input).
In the case of “GATGATTGTTCTCCCAGCTGATGAATTTCACGATTCGAGTAAACAAATTTTCCTAATCTTTCTGTTCAAGCGCCATCTAC” it was 0.798 RPM ratio (pull-down/input); in that of “GATGATTGTTCTCCCAGCTGATGAATTGGAAATCTCGAGTAAACAAATTTTCCTAATCTTTCTGTTCAAGCGCCATCTAC”, 0.713 RPM ratio (pull-down/input).
In the case of “GATGATTGTTCTCCCAGCTGATGAATTATGCGCATCGAGTAAACAAATTTTCCTAATCTTTCTGTTCAAGCGCCATCTAC” it was 1.31 RPM ratio (pull-down/input).
In the case of “GATGATTGTTCTCCCAGCTGATGAATTCGCAGGGTCGAGTAAACAAATTTTCCTAATCTTTCTGTTCAAGCGCCATCTAC”, the binding signal is 0.795 RPM ratio (pull-down/input).
In the case of “GATGATTGTTCTCCCAGCTGATGAATTTGCGTTTTCGAGTAAACAAATTTTCCTAATCTTTCTGTTCAAGCGCCATCTAC” it was 1.41 RPM ratio (pull-down/input); in that of “GATGATTGTTCTCCCAGCTGATGAATTATAGTGGTCGAGTAAACAAATTTTCCTAATCTTTCTGTTCAAGCGCCATCTAC”, 0.961 RPM ratio (pull-down/input).
As to “GATGATTGTTCTCCCAGCTGATGAATTGACACCTTCGAGTAAACAAATTTTCCTAATCTTTCTGTTCAAGCGCCATCTAC”, the binding signal is 1.18 RPM ratio (pull-down/input).
In the case of “GATGATTGTTCTCCCAGCTGATGAATTCACAGCCTCGAGTAAACAAATTTTCCTAATCTTTCTGTTCAAGCGCCATCTAC” it was 0.876 RPM ratio (pull-down/input).
In the case of “GATGATTGTTCTCCCAGCTGATGAATTGAGCGACTCGAGTAAACAAATTTTCCTAATCTTTCTGTTCAAGCGCCATCTAC” it was 0.645 RPM ratio (pull-down/input).
For “GATGATTGTTCTCCCAGCTGATGAATTCGCCCGTTCGAGTAAACAAATTTTCCTAATCTTTCTGTTCAAGCGCCATCTAC”, the binding signal was 0.826 RPM ratio (pull-down/input).
In the case of “GATGATTGTTCTCCCAGCTGATGAATTGAGGACCTCGAGTAAACAAATTTTCCTAATCTTTCTGTTCAAGCGCCATCTAC” it was 0.724 RPM ratio (pull-down/input); in that of “GATGATTGTTCTCCCAGCTGATGAATTCCCCGTTTCGAGTAAACAAATTTTCCTAATCTTTCTGTTCAAGCGCCATCTAC”, 0.866 RPM ratio (pull-down/input).
In the case of “GATGATTGTTCTCCCAGCTGATGAATTAAGTGCGTCGAGTAAACAAATTTTCCTAATCTTTCTGTTCAAGCGCCATCTAC” it was 1.06 RPM ratio (pull-down/input).
Regarding “GATGATTGTTCTCCCAGCTGATGAATTAGGGCGCTCGAGTAAACAAATTTTCCTAATCTTTCTGTTCAAGCGCCATCTAC”, the binding signal is 0.793 RPM ratio (pull-down/input).
In the case of “GATGATTGTTCTCCCAGCTGATGAATTAAATGGCTCGAGTAAACAAATTTTCCTAATCTTTCTGTTCAAGCGCCATCTAC” it was 0.869 RPM ratio (pull-down/input).
In the case of “GATGATTGTTCTCCCAGCTGATGAATTTGGGCATTCGAGTAAACAAATTTTCCTAATCTTTCTGTTCAAGCGCCATCTAC” it was 1.04 RPM ratio (pull-down/input).
In the case of “GATGATTGTTCTCCCAGCTGATGAATTGACAGGATCGAGTAAACAAATTTTCCTAATCTTTCTGTTCAAGCGCCATCTAC” it was 1.1 RPM ratio (pull-down/input); in that of “GATGATTGTTCTCCCAGCTGATGAATTCATTACATCGAGTAAACAAATTTTCCTAATCTTTCTGTTCAAGCGCCATCTAC”, 1.04 RPM ratio (pull-down/input); in that of “GATGATTGTTCTCCCAGCTGATGAATTCGGTTAGTCGAGTAAACAAATTTTCCTAATCTTTCTGTTCAAGCGCCATCTAC”, 0.894 RPM ratio (pull-down/input).
In the case of “GATGATTGTTCTCCCAGCTGATGAATTTATGTGGTCGAGTAAACAAATTTTCCTAATCTTTCTGTTCAAGCGCCATCTAC”, the binding signal is 1.23 RPM ratio (pull-down/input).
In the case of “GATGATTGTTCTCCCAGCTGATGAATTGATTGCTTCGAGTAAACAAATTTTCCTAATCTTTCTGTTCAAGCGCCATCTAC” it was 1.26 RPM ratio (pull-down/input).
On to “GATGATTGTTCTCCCAGCTGATGAATTTTATTCGTCGAGTAAACAAATTTTCCTAATCTTTCTGTTCAAGCGCCATCTAC”, for which the binding signal is 0.956 RPM ratio (pull-down/input).
In the case of “GATGATTGTTCTCCCAGCTGATGAATTTCAGGGTTCGAGTAAACAAATTTTCCTAATCTTTCTGTTCAAGCGCCATCTAC” it was 0.869 RPM ratio (pull-down/input).
In the case of “GATGATTGTTCTCCCAGCTGATGAATTTAGACTTTCGAGTAAACAAATTTTCCTAATCTTTCTGTTCAAGCGCCATCTAC” it was 1.04 RPM ratio (pull-down/input); in that of “GATGATTGTTCTCCCAGCTGATGAATTATCTTGCTCGAGTAAACAAATTTTCCTAATCTTTCTGTTCAAGCGCCATCTAC”, 0.94 RPM ratio (pull-down/input).
In the case of “GATGATTGTTCTCCCAGCTGATGAATTCACGGCGTCGAGTAAACAAATTTTCCTAATCTTTCTGTTCAAGCGCCATCTAC” it was 0.885 RPM ratio (pull-down/input); in that of “GATGATTGTTCTCCCAGCTGATGAATTTCACCACTCGAGTAAACAAATTTTCCTAATCTTTCTGTTCAAGCGCCATCTAC”, 0.877 RPM ratio (pull-down/input).
For the sequence “GATGATTGTTCTCCCAGCTGATGAATTCCCAATCTCGAGTAAACAAATTTTCCTAATCTTTCTGTTCAAGCGCCATCTAC”, the binding signal was 0.815 RPM ratio (pull-down/input).
